Results on 107 molecules are retold here after PubChem BioAssay AID488969 (Vanderbilt High Throughput Screening Facility, 2010).

The full ranking holds about 110,000 compounds; the median of “z-score” is about -0.1, and the highest 2% start at about 2. Some of the results follow. Activity calls are given as the source filed them.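 How the source made its calls: active means z-score in the third read window above 3 or below -3; inactive means the rest.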

In this test the target is Metabotropic glutamate receptor 8 (Rattus norvegicus) (UniProt P70579). The experiment in a line: rat mGluR8 modulators via GIRK flux, primary screen, cell-based, thallium flux, HTS (AID 488969). To be noted: HEK293 rat mGluR8, GIRK (G protein-gated inwardly rectifying potassium channel) thallium flux, FluoZin2; at 10 µM; stronger effect = higher value; submaximal glutamate (EC20) added with thallium.
Chain of UniProt P70579 (P70579 whole entry, looked up): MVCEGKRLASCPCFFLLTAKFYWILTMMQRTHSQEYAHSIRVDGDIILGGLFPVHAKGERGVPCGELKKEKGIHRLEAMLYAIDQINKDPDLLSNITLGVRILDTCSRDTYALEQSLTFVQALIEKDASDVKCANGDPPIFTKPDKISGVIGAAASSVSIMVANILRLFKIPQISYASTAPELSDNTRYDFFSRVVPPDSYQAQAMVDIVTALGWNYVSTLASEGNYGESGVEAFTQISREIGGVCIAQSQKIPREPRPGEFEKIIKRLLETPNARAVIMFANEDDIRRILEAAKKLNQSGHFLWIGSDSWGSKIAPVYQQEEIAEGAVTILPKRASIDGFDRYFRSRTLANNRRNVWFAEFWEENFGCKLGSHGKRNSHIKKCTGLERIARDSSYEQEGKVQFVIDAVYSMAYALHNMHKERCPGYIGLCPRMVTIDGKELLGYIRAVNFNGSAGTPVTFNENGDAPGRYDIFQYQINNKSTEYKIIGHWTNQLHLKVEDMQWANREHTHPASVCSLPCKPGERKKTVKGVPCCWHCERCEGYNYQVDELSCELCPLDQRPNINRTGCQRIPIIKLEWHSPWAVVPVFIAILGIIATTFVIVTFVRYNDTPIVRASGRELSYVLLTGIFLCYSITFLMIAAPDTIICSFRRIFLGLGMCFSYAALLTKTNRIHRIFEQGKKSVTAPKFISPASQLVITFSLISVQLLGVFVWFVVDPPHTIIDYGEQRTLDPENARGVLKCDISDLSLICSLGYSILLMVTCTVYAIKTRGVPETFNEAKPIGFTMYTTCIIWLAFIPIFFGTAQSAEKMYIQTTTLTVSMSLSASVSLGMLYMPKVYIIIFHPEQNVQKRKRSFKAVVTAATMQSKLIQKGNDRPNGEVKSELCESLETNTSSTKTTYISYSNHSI
With `CCC(NC(=S)Nc1ccccc1)C(=O)O` (configuration not stated), the z-score is -0.128. On to `Cc1ccc(C(=O)Cn2nnc3ccccc32)cc1`, for which the z-score is -0.246.

For `CCC(=O)NC(c1ccc([N+](=O)[O-])cc1)c1c(O)ccc2ccccc12` (configuration not stated), the z-score came to 0.825. On to `CCOC(=O)C1=C(C)Nc2nnnn2C1c1ccccc1Cl` (configuration not stated), for which the z-score is active: -3.29. Next, `CC(OC(=O)c1cc2sccc2n1C)C(=O)NCc1ccco1` (configuration not stated): -0.0576; `CCOC(=O)c1c(NC(=S)Nc2ccccc2)sc2c1CCCCC2`: active: 3.94; `COc1ccc(S(=O)(=O)n2nc(OC(=O)c3ccccc3Br)cc2N)cc1`: -0.341. Next, `O=C(CCCSc1nc2sc3c(c2c(=O)[nH]1)CCC3)NCCO`: -0.0186; `Cc1ccc2c(Cl)cc(Cl)c(OCc3c(C)noc3C)c2n1`: -0.811; `Cc1ccc2[nH]c(=O)c(CN(Cc3ccco3)S(=O)(=O)c3c(C)ccc4nsnc34)cc2c1`: -0.286. Consider `CC(C)CC(=O)NC(=S)Nc1ccc(S(=O)(=O)NC(C)(C)C)cc1`, for which the z-score was -0.107. Turning to `CC1=CC(C)(C)Nc2ccc(OC(=O)CN3C(=O)c4ccccc4C3=O)cc21`, the z-score was -0.184. `Cc1cc(C)c(S(C)(=O)=O)c(Oc2ccc(C(C)(C)C)cc2)n1` showed a z-score of -0.314. On to `Cc1cc(NS(=O)(=O)c2ccc(NC(NC(=O)C(C(F)(F)F)C(F)(F)F)(C(F)(F)F)C(F)(F)F)cc2)no1`, for which the z-score is -0.151.

`O=C(C1CCN(S(=O)(=O)c2cccnc2)CC1)N1CCN(c2ccccc2Cl)CC1`: the z-score was -0.0943. The molecule `Cc1c(N(C(=O)Nc2ccccc2)C2=NCC(C)S2)c(=O)n(-c2ccccc2)n1C` (configuration not stated) returned a z-score of -0.23. Turning to `O=C(COC(=O)c1n[nH]c2ccccc12)NC(=O)NCc1ccco1`, the z-score was -0.182.

Molecule `COc1ccccc1CNC(=O)c1ccc(NS(C)(=O)=O)cc1` displayed a z-score of -0.43.

In turn, `O=C(N/N=C/c1cccc(F)c1)c1csc2c1CCCC2` returned a z-score of -0.028. For `CC(=NC1CCCCC1)C1=C(O)c2ccccc2C1=O`, the z-score was -0.199. For `CC1CC(C)CN(C/C=C/c2ccccc2[N+](=O)[O-])C1` (configuration not stated), the z-score was found to be 0.224. Take `CN(C(=O)c1ccc2c(c1)OCO2)C1(C(=O)NC2CCCCC2)CCCCC1`: the z-score is -0.211.

The molecule `Cc1cc(C(=O)N/N=C/C=C/c2ccc3c(c2)OCO3)n[nH]1` gave a z-score of -0.346. In the case of `CCc1cccc(NC(=O)CCSCCC(=O)Nc2cccc(CC)c2)c1`, the z-score was active: 3.02. The molecule `O=C(Nc1cc(Sc2nc3ccccc3s2)cc([N+](=O)[O-])c1)c1ccccc1` yielded a z-score of -0.37. Molecule `CC(=O)c1ccc(S(=O)(=O)NCCCC(=O)NCCc2ccccn2)cc1` had a z-score of -0.0522.

`CCN(CC)NC(=S)Nc1ccccc1` registered a z-score of 0.0841. In the case of `O=C(Cn1cnc2c(nnn2Cc2ccc(F)cc2)c1=O)N1CCCc2ccccc21` it was -0.622; in that of `CC(C)CNS(=O)(=O)c1ccc(S(=O)(=O)NC2CCOC(C)(C)C2)cc1` (configuration not stated), -0.235; in that of `COc1cc(C(=O)Nc2ccc(-c3nnc(-c4ccco4)o3)cc2)cc(OC)c1OC`, 0.0264. Next, `CCOc1ccc2nc(SCc3ccc(F)cc3)sc2c1`: -0.288; `COc1ccccc1C(=O)Nc1ccc(S(=O)(=O)Nc2cc(C)on2)cc1`: -0.339; `CC(C)(CO)N=Cc1c(O)[nH]c2ccccc12`: -0.658.

As for `CCSc1nc2c(c(=O)[nH]1)C(c1ccncc1)C(C(=O)OC(C)C)=C(C)N2` (configuration not stated), the z-score is -1.21.

For `Cc1ccc(C(=O)N/C(=C\c2ccc(C(C)C)cc2)C(=O)NCCCN2CCOCC2)cc1`, the z-score is -0.299.

`O=C(CCCn1c(=O)[nH]c2cc(Cl)ccc2c1=O)NCCC1=CCCCC1` came in with a z-score of 0.71. Regarding `NC(=O)c1oc2ccccc2c1NC(=O)c1nc2ccccc2s1`, the z-score was -0.927.

In the case of `CCCCSc1nc(O)c(C2OC(=O)c3c2ccc(OC)c3OC)c(=O)n1-c1ccccc1` (configuration not stated), the z-score was -1.03. In turn, `O=C(CSc1n[nH]c(-c2cccs2)n1)NCc1ccc2c(c1)OCO2` showed a z-score of -0.611. The molecule `Cc1ccc(C(=O)NCCc2csc(-c3cccnc3)n2)cc1` returned a z-score of 1.03.

Take `Cn1c(=O)c2cc(S(=O)(=O)NC(C(=O)Nc3cccc(F)c3)c3ccccc3)ccc2n(C)c1=O` (configuration not stated): the z-score came out at 0.186. Next, `COc1ccc(C2=NOC3(CC(=O)N(c4ccc(Cl)cc4)C3=O)C2)c(OC)c1` (configuration not stated): 0.285; `CC(C)CCn1cnc2c(cnn2-c2ccc(F)cc2)c1=O`: -0.575. Regarding `Cc1cc(C)cc(OCC(=O)OCC(=O)c2ccc3c(c2)NC(=O)CO3)c1`, the z-score was -0.225. The molecule `Cc1noc(C)c1S(=O)(=O)N1CCCC(C(=O)N2CCC(C)CC2)C1` (configuration not stated) yielded a z-score of 1.01. `COc1ccc(N(CC(=O)Nc2ccccc2C(=O)NCCc2ccccc2)S(C)(=O)=O)cc1OC` returned a z-score of -0.431. Next, `Cc1ccc(-c2noc(-c3ccccc3C(=O)NCC3CCCO3)n2)cc1` (configuration not stated): -0.709; `CCOc1ccc(C(=O)CC(=O)C(=O)NCCc2ccc(OC)c(OC)c2)cc1`: -0.0424. Turning to `c1ccc(Nc2nc(N3CCCCC3)nc(N3CCCCC3)n2)cc1`, the z-score was -0.283. On to `O=C(CSc1nnc2ccccn12)c1ccc2c(c1)OCCO2`, for which the z-score is 0.538. With `CC(C)NC(=O)c1ccccc1NC(=O)C1COc2ccccc2O1` (configuration not stated), the z-score is -0.252. Consider `c1ccc(CNC2=NCCC2)nc1`, for which the z-score is -0.926. For the molecule `COc1ccc(Nc2ccc(S(=O)(=O)N3CCCCC3)cc2[N+](=O)[O-])cc1`, the z-score worked out at 1.48. As to `CCc1ccccc1N1CSC2=C(C#N)C(c3ccccc3F)CC(=O)N2C1` (configuration not stated), the z-score is -0.115. Regarding `Cc1nc2c(o1)CCc1ccccc1C2O` (configuration not stated), the z-score was -0.338.

The molecule `CCOC(=O)c1nnn(CC(=O)N2N=C(c3ccccc3)CC2c2ccccc2)c1C(=O)OCC` (configuration not stated) yielded a z-score of 0.339. As to `CCCn1c(=NC(C)=O)c(C(=O)OCC)cc2c(=O)n3ccccc3nc21`, the z-score is -0.42.

Turning to `CC1CCc2c(C(=O)Nc3nccs3)csc2C1` (configuration not stated), the z-score was -0.208. Molecule `Cc1ccc(/C=C/C(=O)Nc2cccc(S(=O)(=O)N3CCOCC3)c2)o1` displayed a z-score of 0.0167. For `Cc1cc(C)c(C(=O)CSC2=NC(N)=C(C#N)C3(CCCCC3)C2C(N)=O)cc1C` (configuration not stated), the z-score is 0.332.

Molecule `CCOC(=O)C1=C(C)N=C2SCCC(=O)N2C1c1sccc1C` (configuration not stated) displayed a z-score of -2.13.

As for `COc1cc(C2c3c(-c4cc(C)cc(C)c4O)n[nH]c3C(=O)N2CCCO)cc(OC)c1OC` (configuration not stated), the z-score is -0.272. In the case of `CCCCN(C)C(=O)CCCc1c[nH]c2ccccc12`, the z-score was -0.0422. Next, `COc1ccc(N2CCN(C(=O)CCCSc3nc4ccccc4[nH]3)CC2)cc1`: -0.47; `CN(C)c1nc(N(C)C)nc(N(C#N)CN2C(=O)c3ccccc3C2=O)n1`: -0.351; `COc1cc(NC2c3ccccc3C(=O)N2c2cc(C)ccn2)cc(OC)c1OC` (configuration not stated): 0.39.

Consider `O=C1CN(c2ccc(Br)cc2)C(=O)N1CC(=O)N1CCCc2ccccc21`, for which the z-score was -0.157. The molecule `COc1cccc(N2CC(C(=O)Oc3ccc4ccccc4c3)CC2=O)c1` (configuration not stated) had a z-score of -0.644. In the case of `N#CC1=C(N)C2=CCCC[C@H]2[C@H](c2ccccc2)C1(C#N)C#N` it was -1.18; in that of `Cc1ccc(CC(=O)O/N=C(\N)c2cccc([N+](=O)[O-])c2)cc1`, -0.143; in that of `Cc1csc(Nc2ccccc2C(F)(F)F)n1`, -0.301. `CCCNC(=O)c1cccc(C(F)(F)F)c1` displayed a z-score of -0.236.

For the molecule `Cc1ccc(C(=O)N(CC(=O)NC2CCCCC2)c2ccccc2C)s1`, the z-score is -0.171. `CC(C)(C)NC(=O)CN(C(=O)C1CSC(=O)C1)c1ccc2c(c1)OCCO2` (configuration not stated): the z-score was -0.19. Turning to `O=C(O)c1ccc2c(=O)n3c(nc2c1)/C(=C/c1ccccc1C(F)(F)F)CCCC3`, the z-score was -1.78. `Cc1ccccc1NC(=O)COC(=O)/C=C/c1cn(-c2ccccc2)nc1-c1cccnc1` returned a z-score of -0.0968. With `Cc1cc2n(n1)C(c1cn(-c3ccccc3)nc1C)Nc1ccccc1-2` (configuration not stated), the z-score was -2.98. On to `O=C(CSCc1c(F)cccc1Cl)NCC1CCCO1` (configuration not stated), for which the z-score was determined as 0.24. In the case of `CC(=O)N/C(=N/c1nc(C)cc(C)n1)Nc1ccc(NC(C)=O)cc1`, the z-score is -0.162.

`Cc1oc(C(=O)O)cc1COc1ccccc1Cl` returned a z-score of -0.082.

For `CCC1CCCCN1C(=S)NC1CCCCC1` (configuration not stated), the z-score was -0.361. The molecule `Cc1[nH]c2ccccc2c1C(=O)CN1CCC(C(N)=O)(N2CCCCC2)CC1` came in with a z-score of 0.069.

In turn, `O=C(Nc1cccs1)Nc1c(F)c(F)c(F)c(F)c1F` gave a z-score of 0.248. Take `CCOC(=O)c1cnn2c(C(F)F)cc(C3CC3)nc12`: the z-score was -0.136. The molecule `CC(=O)C1=C(C)NC(=O)NC1c1cc(Br)ccc1OCC#N` (configuration not stated) displayed a z-score of 0.116. In the case of `CC(C)Cn1c(O)c2ccc(C(=O)N=NC(=O)c3cccnc3)cc2c1O` it was -0.0881. In the case of `CCCc1cc(-c2[nH]ncc2-c2ccc3c(c2)OCCCO3)c(O)cc1OC` it was 0.497; in that of `CS(=O)(=O)N(Cc1ccc(Cl)cc1)c1ccc(C(=O)Nc2cccnc2)cc1`, -0.045. `C=CCN(C(=O)CNC(=O)c1ccco1)C(C(=O)NC1CCCCC1)c1ccc(F)cc1` (configuration not stated) returned a z-score of 0.437.

As for `O=C(c1ccc2c3c(cccc13)C(=O)N(O)C2=O)N1CCCCC1`, the z-score came out at 0.845. With `CCOC(=O)Cc1nnc(NC(=O)COc2ccc(F)cc2)s1`, the z-score is -0.124. In turn, `Cc1ccc(N2C(=O)c3ccc(C(=O)N4CCOCC4)cc3C2=O)cc1C` registered a z-score of -0.248.

`CCN(C(=O)c1ccc(NC(C)=O)cc1)c1ccccc1` gave a z-score of 0.0781. `O=C(NC1=NCCS1)c1nc(-c2ccccc2)n(-c2ccccc2)n1` displayed a z-score of -0.225. Molecule `COc1cccc(CNC(=O)c2cnc(-c3ccccn3)nc2C(F)(F)F)c1` returned a z-score of -0.219.

For `COc1cccc(C2=NOC(C(=O)N3CCN(c4ccccc4)CC3)C2)c1OC` (configuration not stated), the z-score came out at 0.541.

`Cn1c(SCC(=O)Nc2ccc3nc(SCC(=O)N4CCCC4)sc3c2)nnc1-c1ccccc1` gave a z-score of -0.619. With `COc1ccc(NC(=O)CNCCC2=CCCCC2)cc1`, the z-score is -0.335. With `COC(=O)c1sccc1NC(=O)c1cc(-c2cc(C)ccc2C)nc2ccccc12`, the z-score was -0.139. `C/C(=N\NC(=O)Cc1cccn1C)c1ccc2ccccc2c1` returned a z-score of -0.1. `COc1cc(/C=C2\SC(=S)N(Nc3ncc(C(F)(F)F)cc3Cl)C2=O)cc(OC)c1OC` showed a z-score of 0.253.

As for `CCOC(=O)C(NC(=O)c1ccccc1)=C(C)C`, the z-score is -0.106. In the case of `COc1ccc(-c2nnc(N3CCC(C)CC3)c3ccccc23)cc1` it was -0.528. Next, `COCCNc1nc2c(c(=O)n(C)c(=O)n2C)n1Cc1cccc(C)c1`: -0.0465; `COc1ccc(S(=O)(=O)Nc2ccc(S(=O)(=O)N3CCCCC3)cc2)cc1OC`: -0.502; `COc1cc(OC)cc(C(=O)N2CCN(S(C)(=O)=O)CC2)c1`: 0.315.

In turn, `CCCOc1ccc(S(=O)(=O)NCCCN2CCOCC2)c2ccccc12` yielded a z-score of 0.408.
